Test results: PubChem BioAssay AID1476 (National Center for Advancing Translational Sciences (NCATS), 2009)
The whole screen tested about 200,000 compounds, of which about 4,500 (2.2%) were called active. The inconclusive results got no clear call from the source; some entries with a clear call stand among them for comparison. The call rests on the fitted dose curve; in most records, active means well fitted inhibition curve with a large enough effect; inconclusive means small, poorly fitted or top-dose-only effect, or effect the other way; inactive means flat fitted curve, though single readings scatter. Potencies of inconclusive entries are doubtful fits and often do not repeat.

Target: Cruzipain (Trypanosoma cruzi) (UniProt P25779)
Assay: qHTS Assay for Promiscuous and Specific Inhibitors of Cruzain (without detergent); further: nearly all actives have a fitted effect of over 40% in size;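 on max response, negative = inhibition: plate controls were enzyme without inhibitor for no effect and buffer without enzyme for full effect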
Conditions: purified cruzain, Z-FR-AMC fluorescence, no detergent
Summary of the method: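 Purified cruzain at 1.5 nM, pre-incubated 15 min with compound at room temperature in 100 mM sodium acetate pH 5.5, 5 mM DTT, 0.00005% Triton X-100. Reaction started with 2 uM Z-FR-AMC; AMC fluorescence increase over 60 s gives rate.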
Potency means the concentration at half of the fitted maximal effect; tags describe the fitted curve by direction and shape.

Chain of UniProt P25779 (P25779 whole entry, looked up): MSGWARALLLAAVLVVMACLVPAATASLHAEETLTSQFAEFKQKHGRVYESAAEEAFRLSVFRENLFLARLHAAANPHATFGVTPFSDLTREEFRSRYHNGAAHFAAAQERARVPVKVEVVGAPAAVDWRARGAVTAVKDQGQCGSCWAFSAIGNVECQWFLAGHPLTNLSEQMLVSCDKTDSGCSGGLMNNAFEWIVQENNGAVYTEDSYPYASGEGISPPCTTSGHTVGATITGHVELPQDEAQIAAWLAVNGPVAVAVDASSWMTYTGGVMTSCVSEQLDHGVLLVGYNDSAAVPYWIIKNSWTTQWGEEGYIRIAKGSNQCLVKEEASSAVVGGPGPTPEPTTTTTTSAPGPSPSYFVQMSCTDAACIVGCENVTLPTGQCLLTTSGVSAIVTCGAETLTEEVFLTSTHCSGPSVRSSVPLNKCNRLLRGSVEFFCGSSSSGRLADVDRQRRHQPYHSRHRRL

Row | SMILES | Potency | max response, negative = inhibition
1 | COc1ccccc1/C=C/C=N/N1CCN(Cc2cccc3ccccc23)CC1 | inconclusive: 39.8 µM [inhibitor, single point] | 
2 | Cc1cccc2nc(-c3ccc(Cl)s3)c(Nc3ccc4c(c3)OCCO4)n12 | inconclusive: 39.8 µM [inhibitor, single point] | 
3 | CCOC(=O)C1=C(C)Nc2sc(C(=O)c3ccc(F)cc3)c(N)c2C1c1ccc(C(=O)OC)cc1 (stereo not drawn) | inconclusive: 39.8 µM [inhibitor, single point] | 
4 | O=C(CSc1nccn1Cc1ccco1)Nc1ccc(OC(F)(F)F)cc1 |  | inactive: 6.88%
5 | Cn1c(N)c(C(=O)COC(=O)C2(c3ccc(Cl)cc3)CCCC2)c(=O)n(C)c1=O | inconclusive: 39.8 µM [activator, single point] | 
6 | CCCn1c(-c2ccc(F)cc2)nc2c(NC(C)CN(C)C)nc(C)nc21 (stereo not drawn) |  | inactive: -6.41%
7 | O=C(Nc1nnc(CSCc2ccc(F)cc2)s1)c1ccc([N+](=O)[O-])cc1 | active: 25.1 µM | 
8 | CCCCOC(=O)CCn1[nH]c(=O)c2ccccc2c1=O |  | inactive: -4.99%
9 | COc1ccc(NC(=O)CCCc2nnc3n(C(C)C)c(=O)c4sccc4n23)cc1Cl |  | inactive: 8.69%
10 | COc1ccc([C@H]2c3cc(OC)c(OC)cc3C[C@@H](C)[C@@H]2C)cc1OC | inconclusive: 39.8 µM [activator, single point] | 
11 | Cc1ccc2c(CNCCc3ccco3)c(C(=O)O)n(Cc3ccc(F)cc3)c2c1 | inconclusive: 39.8 µM [activator, single point] | 
12 | COC(=O)c1sc(N)c(C(=O)OC)c1COC(=O)C1CC(=O)N(Cc2ccco2)C1 (stereo not drawn) | inconclusive: 39.8 µM [activator, single point] | 
13 | Cc1ccc(C(=O)NNC(=O)CCCN2C(=O)/C(=C/c3ccccc3Cl)SC2=S)cc1 | inconclusive: 39.8 µM [inhibitor, single point] | 
14 | N#CC1=C(N)NC(SCC(=O)Nc2ccccc2)=C(C#N)C12CCCC2 |  | inactive: -11.7%
15 | CC(=O)C1=NN(c2ccccc2)C(c2ccc3c(c2)OCO3)N1c1ccccc1 (stereo not drawn) | inconclusive: 39.8 µM [inhibitor, single point] | 
16 | COc1ccc(/C=C/C(=O)NC(=S)Nc2ccccc2C(=O)NC2CCCCC2)cc1 | inconclusive: 39.8 µM [inhibitor, single point] | 
17 | COc1cc2c(cc1NC(=O)c1cccc([N+](=O)[O-])c1C)oc1ccccc12 | inconclusive: 31.6 µM [inhibitor, single point] | 
18 | COC(=O)[C@@]1(Cc2ccc(F)cc2)[C@H]2c3cc(C(=O)N4CCCC4)n(CCc4c[nH]c5ccccc45)c3C[C@H]2CN1C(=O)c1ccccc1 | inconclusive: 6.31 µM [activator, single point] | 
